# From PubChem BioAssay AID504333 (National Center for Advancing Translational Sciences (NCATS), 2011)
# The whole screen tested about 360,000 compounds, of which about 16,000 (4.4%) were called active. Inconclusive means that the source gave no clear call. Such entries were picked first, then a sample of the others. Calls follow the shape of the dose curve; as a rule, active = well fitted inhibition curve with a large enough effect; inconclusive = small, poorly fitted or top-dose-only effect; inactive = no such curve, though single readings can be large or run the other way. A potency beside an inconclusive call is a rough fit, not a confirmed value.
# Target: Bromodomain adjacent to zinc finger domain protein 2B (Homo sapiens) (UniProt Q9UIF8)
# Assay: qHTS Assay for Inhibitors of BAZ2B; also: nearly all actives have a fitted effect of over 60% in size
# Details: AlphaScreen BAZ2B-H3K14Ac peptide displacement; series mostly up to 114 µM
# Procedure, shortened: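 Compounds, titrated to a top concentration of 110 uM, were incubated 30 min at room temperature with preformed BAZ2B/acetyl-K14 H3 peptide complex (50 nM each). Proximity signal was measured by AlphaScreen after 20 min with beads.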
# Potency is read from the fitted curve at half-maximal effect; tags tell the direction and shape of the fitted curve.
# Chain of UniProt Q9UIF8 (Q9UIF8 whole entry, looked up, the tested form may be a part): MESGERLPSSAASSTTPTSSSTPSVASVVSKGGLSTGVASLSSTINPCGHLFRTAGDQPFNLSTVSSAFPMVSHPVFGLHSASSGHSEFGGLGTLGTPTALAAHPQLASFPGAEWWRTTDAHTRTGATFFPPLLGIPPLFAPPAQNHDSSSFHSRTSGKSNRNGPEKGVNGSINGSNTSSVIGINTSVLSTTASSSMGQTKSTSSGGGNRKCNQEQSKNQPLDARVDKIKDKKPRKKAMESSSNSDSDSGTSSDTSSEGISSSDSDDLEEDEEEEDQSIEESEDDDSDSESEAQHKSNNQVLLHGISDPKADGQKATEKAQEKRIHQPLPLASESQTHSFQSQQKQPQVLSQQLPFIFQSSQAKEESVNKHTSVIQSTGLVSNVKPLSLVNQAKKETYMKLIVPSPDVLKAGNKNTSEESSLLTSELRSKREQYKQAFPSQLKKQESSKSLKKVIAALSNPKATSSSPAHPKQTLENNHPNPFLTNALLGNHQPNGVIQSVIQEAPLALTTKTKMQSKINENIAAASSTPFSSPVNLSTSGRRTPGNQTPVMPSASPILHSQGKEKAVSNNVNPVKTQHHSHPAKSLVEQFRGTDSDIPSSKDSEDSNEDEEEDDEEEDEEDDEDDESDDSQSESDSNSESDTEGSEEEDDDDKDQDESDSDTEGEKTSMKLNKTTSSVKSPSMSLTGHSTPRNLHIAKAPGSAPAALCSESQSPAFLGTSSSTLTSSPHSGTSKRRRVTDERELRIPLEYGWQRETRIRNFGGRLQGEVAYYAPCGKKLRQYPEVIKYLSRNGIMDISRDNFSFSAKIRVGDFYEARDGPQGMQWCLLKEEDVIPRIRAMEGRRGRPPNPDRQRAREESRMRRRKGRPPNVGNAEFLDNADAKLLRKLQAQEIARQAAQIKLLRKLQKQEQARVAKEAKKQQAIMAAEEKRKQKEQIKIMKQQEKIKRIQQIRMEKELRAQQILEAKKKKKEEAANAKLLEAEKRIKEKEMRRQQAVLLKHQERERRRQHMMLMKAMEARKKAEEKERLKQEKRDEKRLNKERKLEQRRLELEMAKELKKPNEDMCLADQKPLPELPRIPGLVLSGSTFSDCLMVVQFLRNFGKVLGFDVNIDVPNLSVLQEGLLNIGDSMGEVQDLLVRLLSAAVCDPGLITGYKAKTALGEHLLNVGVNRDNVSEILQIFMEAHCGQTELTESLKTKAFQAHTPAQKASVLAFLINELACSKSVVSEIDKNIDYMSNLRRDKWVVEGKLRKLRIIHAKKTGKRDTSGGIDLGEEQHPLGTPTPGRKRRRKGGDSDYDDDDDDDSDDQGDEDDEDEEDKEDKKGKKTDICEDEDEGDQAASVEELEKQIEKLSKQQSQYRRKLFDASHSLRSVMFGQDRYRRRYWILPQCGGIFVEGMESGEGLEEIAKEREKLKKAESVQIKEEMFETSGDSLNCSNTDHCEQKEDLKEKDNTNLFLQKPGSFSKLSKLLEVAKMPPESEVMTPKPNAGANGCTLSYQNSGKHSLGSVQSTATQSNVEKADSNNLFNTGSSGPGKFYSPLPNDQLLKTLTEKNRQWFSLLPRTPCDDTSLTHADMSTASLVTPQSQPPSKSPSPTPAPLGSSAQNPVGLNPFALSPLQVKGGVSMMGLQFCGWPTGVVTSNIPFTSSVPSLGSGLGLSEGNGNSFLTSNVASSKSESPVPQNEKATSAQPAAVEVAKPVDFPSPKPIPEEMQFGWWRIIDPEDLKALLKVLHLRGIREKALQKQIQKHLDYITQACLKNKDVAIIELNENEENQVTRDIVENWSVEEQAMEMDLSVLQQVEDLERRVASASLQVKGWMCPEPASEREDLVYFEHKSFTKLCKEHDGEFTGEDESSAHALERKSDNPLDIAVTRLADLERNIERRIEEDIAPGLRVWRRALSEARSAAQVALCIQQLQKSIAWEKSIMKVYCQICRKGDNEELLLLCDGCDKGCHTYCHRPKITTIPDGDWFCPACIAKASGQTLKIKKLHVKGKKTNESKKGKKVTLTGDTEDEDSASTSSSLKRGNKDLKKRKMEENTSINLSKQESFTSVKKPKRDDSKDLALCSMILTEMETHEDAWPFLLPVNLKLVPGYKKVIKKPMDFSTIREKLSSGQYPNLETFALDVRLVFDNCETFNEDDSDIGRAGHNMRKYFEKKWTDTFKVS
row,Compound,Potency
1,O=C(Nc1ccccc1N1CCCCC1)c1ccc(Cl)c([N+](=O)[O-])c1,"inconclusive: 14.1 µM [inhibitor, full curve]"
2,COc1ccc(N=C2C(=Nc3ccc(OC)cc3)N(c3ccc(OC)cc3)C(=S)N2C)cc1,active: 2.82 µM
3,O=C(CSc1cn(CC(=O)N2CCCCC2)c2ccccc12)Nc1ccccc1F,"inconclusive: 79.4 µM [inhibitor, single point]"
4,O=Cc1ccc2oc3nc4n(c(=O)c3c(=O)c2c1)CCCS4,active: 56.2 µM
5,CC(OC(=O)Cc1n[nH]c(=O)c2ccccc12)C(=O)Nc1cccc([N+](=O)[O-])c1 (configuration not stated),inactive
6,COc1cc(OC)c(OC)cc1CN1CCN(c2ccccc2OC)CC1,"inconclusive: 89.1 µM [inhibitor, single point]"
7,COc1ccccc1C(=O)Oc1ccc2c(c1)O/C(=C\c1ccncc1)C2=O,"inconclusive: 44.7 µM [inhibitor, partial curve]"
8,CCCCSCCCNC(=S)Nc1ccccc1C,"inconclusive: 39.8 µM [inhibitor, partial curve]"
9,COc1ccc(N2CCCC2)c(NC(=O)COc2ccccc2Cl)c1,"inconclusive: 50.1 µM [inhibitor, partial curve]"
10,COc1ccccc1Nc1cc(C(=O)N2CCc3ccccc3C2)c2ccccc2n1,inactive
11,Cc1ccc(SC[C@H](Cc2ccccc2)N2CCN(CCc3ccccc3)CCC2=O)cc1,"inconclusive: 56.2 µM [inhibitor, partial curve]"
12,CN(C)c1ccnc(C(=O)O)c1,active: 22.4 µM
13,Cc1c(C(=O)O)nnn1-c1ccccc1,"inconclusive: 89.1 µM [inhibitor, single point]"
14,Nc1ccc(Nc2ccccc2)cc1,active: 35.5 µM
15,CCc1ccc(OCC(=O)N/N=C\c2ccco2)c([N+](=O)[O-])c1,active: 44.7 µM
16,Cc1ccc(S(=O)(=O)/N=C2\C=C(Nc3cccc(C(=O)O)c3)C(=O)c3ccccc32)c(C)c1,active: 8.91 µM
17,CCn1c(SC(C)C(=O)O)nnc1-c1cccnc1 (configuration not stated),"inconclusive: 6.31 µM [inhibitor, single point]"
18,CC(C)Oc1ccc(CNS(=O)(=O)c2cnc(N)nc2)cc1,inactive
19,O=C(C1=COCCO1)N1CCN(S(=O)(=O)c2cccc(F)c2)CC1,inactive
20,CCC(=O)Nc1cccc(-c2csc(-c3ccccc3)n2)c1,inactive
21,CCN1CCc2c(sc(NC(=O)COc3ccccc3)c2C(=O)OC)C1,"inconclusive: 79.4 µM [inhibitor, single point]"
22,CN1CCN(C(=O)C(=O)Nc2c3c(nn2-c2ccc(F)cc2)CSC3)CC1,inactive
23,COC(=O)[C@@H](NC(=O)NCc1ccco1)C(C)C,inactive
24,Cc1ccc2nc(N3C(=O)C(O)=C(C(=O)c4ccco4)C3c3ccc(C)o3)sc2c1 (configuration not stated),active: 50.1 µM

row,Compound,Potency
1,CCOc1cc(C(=S)N2CCOCC2)ccc1OC(=O)c1ccccc1,"inconclusive: 89.1 µM [inhibitor, single point]"
2,S=c1[nH]nc(CN2CCCCC2)n1-c1ccc(Cl)cc1,inactive
3,CC1(C)CC(=O)C2=C(C1)Nc1cc3c(cc1C2c1ccc(F)cc1)OCO3 (configuration not stated),"inconclusive: 89.1 µM [inhibitor, single point]"
4,COc1ccc(N2CCN(C(=O)c3oc4ccccc4c3NC(=O)Cc3ccc(OC)c(OC)c3)CC2)cc1,"inconclusive: 25.1 µM [inhibitor, single point]"
5,CC1=C(C(=O)Nc2ccccc2)C(c2ccncc2)C(C#N)=C(SCC(=O)NC(C)C)N1 (configuration not stated),inactive
6,CCC(CO)Oc1cc(NCc2ccccc2Cl)c2ncn(C(C)C)c2c1 (configuration not stated),"inconclusive: 79.4 µM [inhibitor, single point]"
7,O=C(O)C(=O)/C(=C\c1cccc2ccccc12)c1ccc2ccccc2n1,inactive
8,CCc1nnc(NC(=O)c2cc(=O)c3cc(C)c(C)cc3o2)s1,inactive
9,CCOC(=O)N/N=C/c1ccc(OCCSc2ccc(Cl)cc2)c(OC)c1,"inconclusive: 89.1 µM [inhibitor, single point]"
10,CCc1cc2c(=O)oc(-c3ccc(F)cc3)nc2s1,"inconclusive: 100 µM [inhibitor, single point]"
11,O=C(Nc1nnc(-c2ccco2)o1)C1CCCCC1,"inconclusive: 89.1 µM [inhibitor, single point]"
12,COc1cc(C(=O)Nc2nnc(SCC(=O)NCC3CCCO3)s2)cc(OC)c1OC (configuration not stated),"inconclusive: 5.01 µM [inhibitor, full curve, poor fit]"
13,COc1ccc(CC(=O)N/N=C/c2cccnc2)cc1OC,"inconclusive: 70.8 µM [inhibitor, single point]"
14,C/C(=N\NC(=O)c1nc2ccccn2c1C)c1ccc2c(c1)OCO2,inactive
15,Cc1ccc(Nc2nc(NCCCN3CCOCC3)nc(N)c2[N+](=O)[O-])cc1C,"inconclusive: 79.4 µM [inhibitor, single point]"
16,COc1cc(/C=C/C(=O)c2ccc(Cl)s2)cc(OC)c1O,"inconclusive: 89.1 µM [inhibitor, single point]"
17,CCc1cccc(C)c1NC(=O)c1cccc(N(C)C)c1,active: 89.1 µM
18,C(=N\Nc1nc2ccccc2[nH]1)/c1ccccn1,active: 25.1 µM
19,CCN=C1S/C(=C/c2ccc(-c3ccc(Cl)cc3C(=O)O)o2)C(=O)N1CC,"inconclusive: 89.1 µM [inhibitor, single point]"
20,O=C(NC(=S)NNC(=O)c1ccccc1O)c1cccs1,"inconclusive: 79.4 µM [inhibitor, partial curve, poor fit]"
21,Cc1ccc(S(=O)(=O)N/N=C/c2ccccc2F)cc1[N+](=O)[O-],"inconclusive: 50.1 µM [inhibitor, partial curve]"
22,CSc1ccc(CCNC(=O)C2CCN(c3nc4ccccc4nc3C(F)(F)F)CC2)cc1,inactive
23,CN(CC1CCCO1)S(=O)(=O)c1ccc(C(=O)Nc2nnc(-c3ccccc3)o2)cc1 (configuration not stated),"inconclusive: 89.1 µM [inhibitor, single point]"
24,COc1ccccc1CCNC(=O)Nc1cccc([N+](=O)[O-])c1,"inconclusive: 79.4 µM [inhibitor, single point]"

row,Compound,Potency
1,Cc1ccc(S(=O)(=O)N2CCN(C(=O)CCn3cncn3)CC2)cc1C,inactive
2,CCC(=O)c1ccc(OCC(=O)OC(C)C(=O)NCc2ccc3c(c2)OCO3)cc1 (configuration not stated),inactive
3,O=C1NC(=NCc2ccccc2)S/C1=C/c1ccc(O)cc1,"inconclusive: 79.4 µM [inhibitor, partial curve]"
4,C#CCOCCOCCOCCNc1nc(N2CCN(C(=O)[C@H](CCCCN)n3cc(C(N)CC(C)C)nn3)CC2)nc(N2CCN(C(=O)[C@H](CCC(=O)O)n3cc(C(N)[C@H](C)CC)nn3)CC2)n1 (some centres not stated),active: 50.1 µM
5,CCCc1ccc2oc(C(=O)N(Cc3nccn3C)C(C)C)c(C)c2c1,"inconclusive: 25.1 µM [inhibitor, single point]"
6,Cc1c(NC(=O)CN(c2ccc(F)cc2)S(=O)(=O)c2ccccc2)c(=O)n(-c2ccccc2)n1C,"inconclusive: 35.5 µM [inhibitor, partial curve]"
7,COc1ccc(NC(=O)/C=C/C(=O)O)c(OC)c1,inactive
8,O=C(NCC(c1ccco1)N1CCCC1)c1ccc(Cl)c(S(=O)(=O)N2CCc3ccccc32)c1 (configuration not stated),"inconclusive: 89.1 µM [inhibitor, single point]"
9,COc1cccc(C(=O)NCCS(=O)(=O)N2CCCC2)c1,inactive
10,c1ccc2[nH]c(-c3ccnc4ccccc34)nc2c1,"inconclusive: 35.5 µM [inhibitor, single point]"
11,CCOC(=O)c1c(NC(=O)CN2CCN(C)CC2)sc(C(=O)Nc2ccccc2)c1C,"inconclusive: 56.2 µM [inhibitor, partial curve]"
12,N#Cc1ccccc1NC(=S)NC(=O)c1cccnc1,inactive
13,CC(C)c1cccc(OCCCCN(C)C)c1,"inconclusive: 63.1 µM [inhibitor, partial curve, poor fit]"
14,O=[N+]([O-])c1ccc(Sc2n[nH]c(-c3ccncc3)n2)nc1,inactive
15,Cc1ccc(-n2c(O)c(/C=N/c3ncn[nH]3)c3ccccc3c2=O)cc1,"inconclusive: 79.4 µM [inhibitor, single point]"
16,CCOC(=O)C(=NC1CCS(=O)(=O)C1)NNc1cc(Cl)ccc1Cl (configuration not stated),"inconclusive: 50.1 µM [inhibitor, partial curve]"
17,CCCC(=Nc1ccccc1)C1=C(O)C(C(=O)OC)C(C)(C)CC1=O (configuration not stated),"inconclusive: 89.1 µM [inhibitor, single point]"
18,CC(=O)c1cccc(OCC(=O)c2cc(C)n(-c3cc(C)on3)c2C)c1,"inconclusive: 56.2 µM [inhibitor, partial curve]"
19,COC(=O)c1cc(OC)c(OC)cc1NC(=O)CN1C(=O)c2ccccc2C1=O,"inconclusive: 8.91 µM [inhibitor, full curve]"
20,Cc1cc(=O)[nH]c2c(C)cc(S(=O)(=O)Nc3ccc(O)cc3)cc12,inactive
21,CN(Cc1ccccc1)c1nc(N)c([N+](=O)[O-])c(Nc2cccc(F)c2)n1,"inconclusive: 50.1 µM [inhibitor, partial curve]"
22,COc1ccc(/C=C2\CCc3ccccc3C2=O)cc1Cn1cccn1,"inconclusive: 3.55 µM [inhibitor, full curve, poor fit]"
23,COC(=O)c1cc(S(=O)(=O)N2CCN(Cc3ccccc3)CC2)cn1C,inactive
24,Cc1csc(NC(=O)CSc2nsc(SCC(=O)Nc3nc(C)cs3)c2C#N)n1,"inconclusive: 39.8 µM [inhibitor, full curve, poor fit]"
